Measured values reported in the supplement of paper PMC3334620.
Whole data set: some 33,000 sequences, median “E-score (-0.5 to 0.5)” near -0.035, cut for the highest 2% near 0.34. Some of the results follow.

Each sequence was assayed against T1, Mot3 (UniProt P54785) (assay: PBM E-score (8-mer binding enrichment) (E-score (-0.5 to 0.5)); higher = stronger / more preferred TF binding; most listed sequences are background and not binding sites). Conditions: protein concentration: 200 nM; construct: GST-full length.
T1 sequence: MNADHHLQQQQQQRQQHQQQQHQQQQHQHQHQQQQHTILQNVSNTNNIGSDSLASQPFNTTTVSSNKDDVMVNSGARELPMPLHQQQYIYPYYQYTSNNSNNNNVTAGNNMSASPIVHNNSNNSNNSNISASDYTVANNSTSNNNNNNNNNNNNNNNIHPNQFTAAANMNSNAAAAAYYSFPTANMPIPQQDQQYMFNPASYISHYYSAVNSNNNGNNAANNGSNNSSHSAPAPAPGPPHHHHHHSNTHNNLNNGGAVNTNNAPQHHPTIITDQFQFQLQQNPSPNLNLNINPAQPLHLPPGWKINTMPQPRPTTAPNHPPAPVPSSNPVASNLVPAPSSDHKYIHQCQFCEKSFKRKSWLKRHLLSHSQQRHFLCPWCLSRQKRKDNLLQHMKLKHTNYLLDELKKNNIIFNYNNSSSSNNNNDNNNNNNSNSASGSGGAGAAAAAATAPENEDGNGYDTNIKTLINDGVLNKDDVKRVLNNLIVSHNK
Method in brief: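 Yeast transcription factors carrying a GST tag, as full-length proteins or DNA-binding domains, were produced by PURExpress in vitro transcription/translation. About 100-200 nM protein was applied to universal all-10-mer Agilent arrays, double-stranded by primer extension on fresh or once-stripped slides. Bound protein was detected with fluorescent anti-GST, and scans were normalised with masliner. The Universal PBM Analysis Suite gave each ungapped eight-base word, pooled with its reverse complement, an E-score, a modified Wilcoxon-Mann-Whitney statistic.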

Row | Sequence | PBM E-score
1 | CTAACAGC | -0.149
2 | GGGATCTA | -0.0653
3 | GGGTTCAC | -0.292
4 | GAGTATCC | -0.222
5 | ATGCTGTA | 0.15
6 | CATAGACC | -0.0425
7 | AACCCGAG | -0.163
8 | CTCGCCGC | -0.0814
9 | CGTAGAGA | -0.0324
10 | GCCCTCAA | -0.11
11 | CTGTCGTA | 0.145
12 | ACCGGAGA | -0.19
13 | GGTCCCTA | -0.0611
14 | CGATATAC | -0.0314
15 | CGCGTTGA | 0.256
16 | CCGAAGAC | -0.306
17 | GGAAGCCC | -0.357
18 | ATCCAGGC | -0.0601
19 | CTCTAGCC | -0.163
20 | CAATTCGC | -0.00079
21 | GTAAGAGA | 0.0699
22 | CTGGGTTC | -0.0708
23 | AGGAGACA | 0.0581
24 | ACCTTTAT | 0.0883
25 | GCGTACCC | -0.197

Row | Sequence | PBM E-score
26 | GTAGGTTA | 0.22
27 | GTCTAAGA | 0.0261
28 | GGCGGAGA | -0.166
29 | GCATCGGC | -0.132
30 | ATCCACGC | -0.101
31 | GTTTTACA | 0.371
32 | CTCTATTC | -0.239
33 | GTAATGAC | 0.221
34 | CTTCTCAA | -0.0894
35 | ACGTGCTA | 0.199
36 | CACTGCGA | -0.18
37 | CGGGTGCC | 0.0693
38 | ATGGCACC | -0.214
39 | AGTTTTAC | 0.257
40 | CTTGACCA | -0.0229
41 | CGCGTTGC | 0.253
42 | ACGTGGTG | -0.0374
43 | GGGGGTCA | -0.383
44 | TGTTTGAA | 0.106
45 | AGAATTCG | -0.0852
46 | GGCCCCGA | -0.174
47 | GAACCAGA | 0.0364
48 | AGATAGAG | 0.0208
49 | CAAGTTCC | 0.201
50 | AAGTAGCG | -0.169

Row | Sequence | PBM E-score
51 | CGGTCAAG | -0.188
52 | ACTGTAAC | 0.177
53 | ACGCATCA | 0.141
54 | CAGTTGAA | -0.0189
55 | AAAAGGGA | -0.0997
56 | GTATACCA | -0.0785
57 | AAACACTA | 0.144
58 | GACGCGTC | 0.0366
59 | CGGCTAAA | -0.0522
60 | AGGATGCG | -0.114
61 | ACTAGAAG | 0.0479
62 | GTTCCGTA | 0.0962
63 | AACATGCG | 0.307
64 | CCTAACGA | 0.0291
65 | AAAAAGAT | 0.0672
66 | AGGAAGTA | -0.159
67 | CTCCCCGC | 0.0369
68 | ACCGGTAG | -0.102
69 | AAACATGA | 0.327
70 | TCTCTTAA | 0.184
71 | CTTCGCAA | -0.0628
72 | GGGCCATA | -0.339
73 | TATAGCGA | 0.0325
74 | ACGGATAC | 0.0994
75 | CTTTGACA | 0.165

Row | Sequence | PBM E-score
76 | CACCAGCC | -0.159
77 | AGTGTCCC | -0.237
78 | GCTCATAA | -0.0817
79 | ATCAGGTC | -0.0881
80 | AATAATCG | 0.187
81 | AAAGTGGC | -0.201
82 | GATGGGTA | -0.0309
83 | ATGCTCGA | -0.161
84 | ATGATAAT | 0.152
85 | CCGTCCCA | -0.237
86 | CACAAGTC | -0.137
87 | GGCCTGGA | -0.274
88 | CGTTGACA | 0.0924
89 | GAAAGAAC | -0.0119
90 | ACGGGGAC | -0.198
91 | AGCTTTAC | 0.153
92 | AGGAAGAA | -0.0203
93 | ACCGCGGA | -0.245
94 | AGATAACC | 0.00955
95 | ACTACCAA | -0.0391
96 | AGTGAGAG | -0.126
97 | CAGAGACG | -0.059
98 | GCCCAGCA | -0.192
99 | AGTTATAG | 0.162
100 | CCCAGGCC | -0.191

Row | Sequence | PBM E-score
101 | AGCTCGAC | -0.0623
102 | ATTACCTA | 0.332
103 | GCGACTAA | 0.0862
104 | CGGTTGTC | 0.00851
105 | ATATCTAC | 0.171
106 | GCCTGTAA | 0.391
107 | ATCTTCCA | -0.0147
108 | CTTGGCCA | -0.239
109 | CGGGTAGC | -0.213
110 | ATATAGCC | 0.117
111 | ACGTTTGA | 0.0848
112 | CTTGGCAC | -0.0521
113 | GCCAGAAC | -0.112
114 | GGTACCTA | 0.424
115 | CGATTAGA | -0.211
116 | ATCAGATA | 0.0452
117 | CGGATAGA | 0.0854
118 | GTGGTGGA | -0.0887
119 | CCCACAGA | -0.053
120 | ATCTTAGG | -0.0614
121 | AACCTCGT | 0.146
122 | AGACTAGG | -0.164
123 | TCTATACA | 0.179
124 | CAAGCGTG | -0.0248
125 | GACTAAAC | 0.0174

Row | Sequence | PBM E-score
126 | ACGCTTCC | -0.0948
127 | ACAATGGA | -0.0296
128 | CGCTCCGA | -0.0751
129 | ACCCCCCA | -0.178
130 | CGACTGAA | -0.172
131 | CTGTACTC | -0.179
132 | CGTACTAA | 0.138
133 | AGTGGGCG | -0.192
134 | AATCCGAC | -0.0692
135 | GGTGGCCA | -0.201
136 | GAAAGATA | 0.00378
137 | ATTGCGCA | -0.122
138 | ATTGGTTC | 0.149
139 | ATACGGTC | -0.061
140 | CGAAGCTC | -0.229
141 | TACCACGA | 0.181
142 | GGACTCGA | -0.181
143 | CAAAACCG | 0.0415
144 | GATCGAGA | -0.0696
145 | CGACACAC | 0.219
146 | AAGCGAGG | -0.222
147 | ATGCAGCC | -0.0826
148 | AGACAGAG | 0.0671
149 | CGGAATGA | -0.113
150 | CAGTCTAC | -0.134

Row | Sequence | PBM E-score
151 | ACTACTTC | -0.00563
152 | CGGCAACC | -0.0847
153 | AGGGAAAT | -0.0244
154 | AGGCGCAG | 0.166
155 | TGCTCTAA | -0.00036
156 | CGCTATGC | -0.0544
157 | GATATATA | 0.143
158 | ATTCTGTG | -0.0127
159 | GCCATTCC | -0.144
160 | ACACCACC | -0.0988
161 | GGCTTCTA | -0.207
162 | GAATGCTA | -0.207
163 | CCTTCATC | 0.00919
164 | GGTATAAA | -0.00745
165 | TAACATAA | 0.341
166 | GACCGCTA | -0.199
167 | CAATTGGG | -0.214
168 | AGCAATCG | 0.0936
169 | GACTGGCA | -0.131
170 | AGAACCAA | -0.0501
171 | ACCCAATC | -0.24
172 | CTGGGCGC | -0.198
